“And” between values parts separate entries of the source, which are not always exact repeats. Equal values may be shown once. Inconclusive means that the source gave no clear call. Such entries were picked first, then a sample of the others. Where the call is inconclusive, the potency comes from a doubtful curve fit. The source made the active and inactive calls. The call rests on the fitted dose curve; in most records, active means well fitted cell-killing curve with a large enough effect; inconclusive means small, poorly fitted or top-dose-only effect; inactive means no such curve, though single readings can be large or run the other way.
Test: qHTS of pediatric cancer cell lines to identify multiple opportunities for drug repurposing: Primary screen for Rh30 cells (AID 1347107); further: nearly all actives have a fitted effect of over 75% in size
Details: Rh30 rhabdomyosarcoma viability, CellTiter-Glo luminescence, 48 h; series mostly up to 46 µM; activity change, negative = cytotoxic: at the top concentration
Excerpt: Drug repurposing or repositioning has been offered as a strategy for drug development in oncology programs. This approach has special potential for childhood cancers and other rare or orphan diseases, where the expected return on new drug development has been a disincentive to pharmaceuticals.
In this project we exploit the poly-pharmacology of drugs to discover new indications via phenotypic screening of a panel of 19 well-characterized cell lines derived from solid tumors seen in children and adolescents. The goal is to identify approved drugs with previously unrecognized anticancer properties that has the potential to reveal new mechanisms and biological processes involved in carcinogenesis or drug resistance. We employed a titration-based paradigm (quantitative high-throughput screening or qHTS), where all compounds were tested at multiple concentrations for their effect on cell viability. Concentration-response curves (CRCs) were derived directly from the primary screen, and both potency and efficacy values were used to identify compounds with robust bioactivity profiles. We screened the NIH Chemical Genomics Center (NCGC) Pharmaceutical Collection (NPC) and Mechanism Interrogation Plate (MIPE) small molecule collections of approved and investigational compounds against these cell lines; and measured metabolically active cells after 48 hours of compound treatment as a proxy for cell viability.
Assay Submitter: Nathalia J. Martinez, National Center for Advancing Translational Sciences, National Institutes of Health, Rockville, MD, USA; email: natalia.martinez@nih.gov
[1] Shen, M et al. Quantitative high-throughput phenotypic screening of pediatric cancer cell lines identifies multiple opportunities for drug repurposing. Oncotarget 2017 Dec 19;9(4):4758-4772. PMID 29435139.
The cells were obtained from University of North Carolina (UNC), Pediatric Preclinical Testing Program (PPT), and Coriell Institute (CI).
qHTS cell viability assay:
Cells were assayed in growth media at a density of 500-1,000 cells/well. Five microliters of cells were dispensed into 1,536-well, white, solid-bottom, TC-treated plates (Greiner Bio One) using a multidrop dispenser and incubated at 37 degrees C, 5% CO2, under a humidified atmosphere for 5 hours. Twenty-three nanoliters of compounds and controls (neutral control DMSO or positive control bortezomib at final concentration of 2.3 µM) were subsequently transferred by Kalypsys pintool. For primary screens, the MIPE collection was tested at 11-point dilutions (final concentrations range from 0.78 nM to 46 µM) and the NPC collection at 8-point dilutions (final concentrations range from 0.59 nM to 46 µM). Compounds tested in follow-up screens were assayed at 11-point dilutions. Cells were incubated for 48 hours, followed by addition of 3 µL of CellTiter-Glo (Promega). After a 15 min incubation at room temperature, samples were analyzed for luminescence intensity using a ViewLux High-throughput CCD imager equipped with clear filters.
On the % scale 0 is the no-effect control and ±100 the full control effect; potency means the concentration at half of the fitted maximal effect; tags describe the fitted curve by direction and shape.

| SMILES | Potency | activity change, negative = cytotoxic |
| --- | --- | --- |
| Cn1cc(-c2ccncc2)c(-c2ccc(OCc3ccc4ccccc4n3)cc2)n1 | inconclusive: 6.62 µM [cytotoxic, partial curve] |  |
| CCOc1cc(C(=O)Nc2ccc(Cl)c(-c3nc4ccccc4[nH]3)c2)cc(OCC)c1OCC | inconclusive: 16.6 µM [cytotoxic, partial curve] |  |
| CC(C)c1ccccc1Cc1cc(C(=O)Nc2ccc(S(=O)(=O)c3ccccc3C(C)(C)C)cc2)c(O)c(O)c1O | inconclusive: 20.9 µM [cytotoxic, partial curve] |  |
| CC1(C)CC(=O)c2c(C(F)(F)F)nn(-c3ccc(C(N)=O)c(NC4CCC(O)CC4)c3)c2C1 (stereo not given) | inconclusive: 0.743 µM [cytotoxic, full curve] |  |
| Fc1ccc(CNc2ncnc3ccc(F)cc23)cc1 | inconclusive: 5.26 µM [cytotoxic, partial curve] |  |
| CCC(=C(c1ccc(O)cc1)c1ccc(OCCNC)cc1)c1ccccc1 | inconclusive: 7.43 µM [cytotoxic, partial curve] |  |
| CC[C@H](C)C(=O)O[C@H]1C[C@@H](C)C=C2C=C[C@H](C)[C@H](CC[C@@H]3C[C@@H](O)CC(=O)O3)[C@H]21 | inconclusive: 15 µM [cytotoxic, partial curve, poor fit] and inconclusive: 16.6 µM [cytotoxic, partial curve] |  |
| CC1(COc2ccc3c(c2)ncn3-c2ccc3cccc(N4CCC(N)CC4)c3n2)COC1 |  | inactive: -23.5% |
| CN1CCN(c2ccc3nc(-c4c(N)c5c(F)cccc5[nH]c4=O)[nH]c3c2)CC1 | inconclusive: 13.2 µM [cytotoxic, partial curve] |  |
| COc1cc(-c2nn(C3CCC(N4CCN(C(C)=O)CC4)CC3)c3ncnc(N)c23)ccc1NC(=O)c1cc2ccccc2n1C (stereo not given) | inconclusive: 5.9 µM [cytotoxic, partial curve] |  |
| NCCCC(N)(C(=O)O)C(F)F (stereo not given) | inconclusive: 10.5 µM [cytotoxic, partial curve] |  |
| O=C(NC1CCNCC1)c1[nH]ncc1NC(=O)c1c(Cl)cccc1Cl | inconclusive: 4.18 µM [cytotoxic, partial curve] |  |
| Cc1ccc(S(=O)(=O)N[C@@H](Cc2ccccc2)C(=O)CCl)cc1 | inconclusive: 18.7 µM [cytotoxic, partial curve] |  |
| CC1(C)O[C@H]2CC(=O)OC[C@]23[C@H]2CC[C@@]4(C)[C@H](c5ccoc5)OC(=O)[C@H]5O[C@]54[C@]2(C)C(=O)C[C@@H]13 | inactive |  |
| C[C@@H]1[C@H](C)CC[C@]2(C(=O)O)CC[C@]3(C)C(=CC[C@@H]4[C@@]5(C)C[C@@H](O)[C@H](O)[C@@](C)(CO)[C@H]5CC[C@]43C)[C@@H]12 |  | inactive: 23.9% |
| CCc1cncnc1N1CCN(Cc2nc3ccc(C(F)(F)F)cc3[nH]2)CC1 | inconclusive: 9.35 µM [cytotoxic, partial curve] |  |
| O=C(Nc1nnc(-c2ccco2)o1)c1cc(-c2ccccc2)nc2ccccc12 | inconclusive: 14.8 µM [cytotoxic, partial curve] |  |
| CC(=O)NCCC(=O)N[C@@H](CCC(N)=O)C(=O)N[C@@H](CO)C(=O)N[C@@H](CCC(N)=O)C(=O)N[C@@H](CCC(N)=O)C(=O)N[C@H](C(=O)N[C@@H](Cc1ccccc1)C(=O)N[C@]1(C)CCCCCCC=CCCC[C@@](C)(C(=O)N[C@@H](CCC(N)=O)C(=O)N[C@@H](CC(N)=O)C(N)=O)NC(=O)[C@H](CC(C)C)NC(=O)[C@H](CC(C)C)NC(=O)[C@@H](CCCNC(=N)N)NC(=O)[C@H](Cc2c[nH]c3ccccc23)NC(=O)[C@H](CC(C)C)NC(=O)[C@H](CC(N)=O)NC1=O)[C@H](C)O | inconclusive: 18.7 µM [cytotoxic, partial curve] |  |
| CC(C)C[C@H](NC(=O)c1cc2ccccc2s1)C(=O)N1CCN(C(=O)[C@H](CO)NS(=O)(=O)c2ccc(Cl)cc2Cl)CC1 | inconclusive: 16.6 µM [cytotoxic, partial curve] |  |
| Nc1nc(=S)c2[nH]cnc2[nH]1 | inconclusive: 2.99 µM [cytotoxic, full curve] and inconclusive: 2.64 µM [cytotoxic, full curve] |  |

| SMILES | Potency | activity change, negative = cytotoxic |
| --- | --- | --- |
| C=C1C(=CC=C2CCCC3(C)[C@@H]([C@H](C)C=CC=CC(O)(CC)CC)CC[C@@H]23)C[C@@H](O)C[C@@H]1O (stereo not given in full) | inconclusive: 18.7 µM [cytotoxic, partial curve] |  |
| O=C1CN2Cc3c(ccc(Cl)c3Cl)N=C2N1 | inconclusive: 18.7 µM [cytotoxic, partial curve] |  |
| Cc1cnc(Nc2ccc(N3CCN(C)CC3)cc2)nc1Nc1cccc(S(=O)(=O)NC(C)(C)C)c1 | active: 5.9 µM |  |
| NC(=NCCCCCCN=C(N)N=C(N)Nc1ccc(Cl)cc1)N=C(N)Nc1ccc(Cl)cc1 | active: 4.69 µM |  |
| Cc1cc(C(C)Nc2ccccc2)c2nc(N3CCOCC3)cc(=O)n2c1 (stereo not given) | inconclusive: 13.2 µM [cytotoxic, partial curve] |  |
| CN(C(=O)c1ccc(F)cc1C(F)(F)F)C1CCN(c2nnc(-c3ccnn3C)c3ccccc23)CC1 | inconclusive: 13.2 µM [cytotoxic, partial curve] |  |
| COc1cc(C=CC(=O)O)ccc1O |  | inactive: 18.3% |
| N#CC1(c2cccc(C(=O)Nc3cc(Oc4ccc5nc(NC(=O)C6CC6)sc5n4)ccc3F)c2Cl)CC1 | inconclusive: 10.5 µM [cytotoxic, partial curve] |  |
| O=C1C(c2c(O)[nH]c3ccccc23)=Nc2ccccc21 | inconclusive: 1.48 µM [cytotoxic, partial curve] |  |
| C=CC1=C(C(=O)O)N2C(=O)[C@@H](NC(=O)C(=NO)c3csc(N)n3)[C@H]2SC1 |  | inactive: 24.8% |
| CC(=O)N1CCN(c2ccc(OC[C@H]3CO[C@](Cn4ccnc4)(c4ccc(Cl)cc4Cl)O3)cc2)CC1 | inconclusive: 10.5 µM [cytotoxic, partial curve] |  |
| CC(C)(N)C(=O)N[C@H](COCc1ccccc1)C(=O)N1CCC2(CC1)CN(S(C)(=O)=O)c1ccccc12 | inconclusive: 14.8 µM [cytotoxic, partial curve] |  |
| Nc1ccc(S(N)(=O)=O)cc1 | inactive |  |
| C=CC(=O)Nc1cccc(Oc2nc(Nc3ccc(N4CCN(C)CC4)cc3OC)ncc2Cl)c1 | active: 23.5 µM |  |
| Fc1ccc([C@@H]2CCNC[C@H]2COc2ccc3c(c2)OCO3)cc1 | inactive |  |
| CC(C=CC(=O)NO)=C[C@@H](C)C(=O)c1ccc(N(C)C)cc1 | active: 7.43 µM |  |
| CNC(=O)c1cc(Oc2ccc(NC(=O)Nc3ccc(Cl)c(C(F)(F)F)c3)cc2)ccn1 | inconclusive: 14.8 µM [cytotoxic, partial curve] and inconclusive: 33.5 µM [cytotoxic, partial curve, poor fit] |  |
| CN(C)CCC=C1c2ccccc2C=Cc2ccccc21 | inactive |  |
| C1=CCOCc2cc(ccc2OCCN2CCCC2)Nc2nccc(n2)-c2cccc(c2)OCC1 | active: 14.8 µM |  |
| Clc1ccc(C2(c3ccc(-c4cn[nH]c4)cc3)CCNCC2)cc1 | inconclusive: 20.9 µM [cytotoxic, partial curve, poor fit] |  |

Reference: PubChem BioAssay (NCATS)
